# PubChem BioAssay AID485344 (National Center for Advancing Translational Sciences (NCATS), 2010)
# The whole screen tested about 340,000 compounds, of which about 6,900 (2%) were called active. Cut-off read from the data, not from the text of the source: active = inhibition above about 30%; inactive = below that, where a call was filed. The entries are a selection whose mix differs from that of the whole data set. The source gives no active or inactive call for entries shown without one.
# Target: D(2) dopamine receptor (Homo sapiens) (UniProt P14416)
# Sequence of UniProt P14416 (P14416 whole entry, looked up): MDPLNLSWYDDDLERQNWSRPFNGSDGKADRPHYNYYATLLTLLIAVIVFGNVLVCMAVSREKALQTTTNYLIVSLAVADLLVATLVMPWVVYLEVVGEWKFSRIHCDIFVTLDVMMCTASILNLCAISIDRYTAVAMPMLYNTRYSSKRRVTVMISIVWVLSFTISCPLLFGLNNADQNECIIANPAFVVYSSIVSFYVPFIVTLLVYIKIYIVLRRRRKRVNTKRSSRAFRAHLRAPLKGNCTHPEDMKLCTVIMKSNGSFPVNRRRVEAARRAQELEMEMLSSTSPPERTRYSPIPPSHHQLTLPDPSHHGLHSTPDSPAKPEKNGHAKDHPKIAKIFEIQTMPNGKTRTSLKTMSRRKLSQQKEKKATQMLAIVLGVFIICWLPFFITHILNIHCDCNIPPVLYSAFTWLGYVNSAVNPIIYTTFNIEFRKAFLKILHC
# Assay: HTS Assay for Allosteric Antagonists of the Human D2 Dopamine Receptor: Primary Screen for Antagonists; note: 0% is about no effect
# Settings: HEK293 TREx D2 cells, calcium flux, dopamine EC80; at 10 µM; stronger effect = higher value
# Summary of the method: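 Cells plated overnight at 30 C with tetracycline; no-wash calcium dye, 30–90 min RT; 10 s baseline; compound pinned; 180 s read; EC80 dopamine added; another 180 s read.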
row,Compound,inhibition
1,Cc1ccc(C)c(NC(=O)CSc2nc(-c3ccccc3)c(C#N)c(=O)[nH]2)c1,4.14%
2,COc1ccc(S(=O)(=O)c2c(Nc3c(C)cccc3C)sc(C(=O)c3ccc(F)cc3)c2N)cc1,-18.3%
3,COC(=O)c1ccccc1NC(=O)C1=CC(c2ccc3c(c2)OCO3)=NS(=O)(=O)N1C,6.06%
4,Cc1ccc(CNc2nc3ccc(Cl)cc3n3cnnc23)cc1,7.47%
5,CCc1cccc(C)c1Nc1c(-c2ccc(SC)cc2)nc2sccn12,8.22%
6,Cc1cccc(NC(=O)Cn2c(=O)n(Cc3ccccc3)c(=O)c3sc4ccccc4c32)c1,25.6%
7,Fc1ccc(-c2noc3ncnc(Nc4ccc(F)cc4F)c23)cc1,8.81%
8,CCOc1ccc(N(C(=O)c2ccc(Cl)cc2)S(=O)(=O)c2ccc3c(c2)n(C)c(=O)n3C)cc1,6.41%
9,O=C(CC1N=C2c3ccccc3N=C(SCc3ccc(F)cc3)N2C1=O)NC1CCCCC1 (configuration not stated),5.11%
10,CCOc1ccc(CCNC(=O)c2cccc(Nc3nc4ccccc4nc3-n3nc(C)cc3C)c2)cc1OCC,-0.843%
11,Cc1ccc(C(=O)Nc2ccccc2C(=O)OCc2cc(=O)n3nc(C(C)C)sc3n2)cc1,-5.4%
12,Cc1ccc(C)c(NC(=O)CN(C)S(=O)(=O)c2cccc3cccnc23)c1,1.2%
13,CCOc1ccccc1NC(=O)C1CCC(CNS(=O)(=O)c2ccc3c(c2)CCCC(=O)N3)CC1 (configuration not stated),0.663%
14,Cc1cccc(N2CCN(C(c3ccccc3)c3nnc(-c4ccccc4F)o3)CC2)c1C (configuration not stated),19.4%
15,Fc1ccc(Nc2nc(SCc3ccccc3Cl)nc3ccccc23)cc1,14.6%
16,Cc1cc(C)cc(NC(=O)C2CCCN(S(=O)(=O)c3cccc4nsnc34)C2)c1 (configuration not stated),-0.281%
17,NC(=O)C1CCN(C(=O)c2ccc3c(c2)N(Cc2cccc(Cl)c2)C(=O)c2ccccc2S3=O)CC1 (configuration not stated),-8.37%
18,Cc1csc2nc(COC(=O)CNC(=O)c3ccc(F)cc3)cc(=O)n12,-3.16%
19,COc1cc(OC)c2c(-c3ccccc3)cc(=O)oc2c1C(CC(=O)N1CCN(c2ccccc2)CC1)c1ccc(N(C)C)cc1 (configuration not stated),active: 48%
20,COc1ccc(CSc2nc3ccncc3n2CC(=O)Nc2cc(C)cc(C)c2)cc1,-1.63%
21,CCOC(=O)c1c(C)[nH]c(C)c1S(=O)(=O)NCC(=O)Nc1ccc(C)cc1C,-2.22%
22,O=C(Cn1c(=O)n(-c2ccc(F)cc2)c(=O)c2sc3ccccc3c21)NC1CCCC1,-7.36%
23,COc1ccc(-n2nc3ccc(NC(=O)c4c(OC)cccc4OC)cc3n2)cc1,16.6%

row,Compound,inhibition
1,CCc1ccc2oc(C(=O)Nc3ccccc3OC)cc(=O)c2c1,-28.4%
2,CCc1nc2ccccc2n2c(-c3ccc(C)cc3)c3c(=O)n(C)c(=O)n(C)c3c12,1.04%
3,CCc1ccc(C(=O)CC2(O)C(=O)N(CCc3ccccc3)c3ccc(Br)cc32)cc1 (configuration not stated),0.463%
4,CCc1c(C)sc2c1CCN(Cc1cccc(OC)c1)C2c1ccccc1 (configuration not stated),-27.2%
5,CCC1=Nc2cc(C(=O)NCCc3ccc(OC)c(OC)c3)ccc2Sc2ccccc21,1.67%
6,CCCCN(CCCC)CCNC(=O)Cn1nc(CC)n2c(cc3sccc32)c1=O,4.73%
7,Cc1ccc(CNC(=O)C(NS(=O)(=O)c2cccs2)C(C)C)cc1 (configuration not stated),-25.3%
8,COc1ccc(CCC(=O)NCc2ccc3c(c2)CCN3C(=O)c2ccc(Cl)cc2)cc1,17.2%
9,COC(=O)c1ccc(Cl)cc1NC(=O)Nc1nnc(N(C)C2CCCCC2)s1,12%
10,Cc1ccc(CSC2=Nc3ccccc3C3=NC(CCC(=O)NC4CCCCC4)C(=O)N23)cc1 (configuration not stated),10.6%
11,CC(=O)c1cccc(NC(=O)CSc2nc3c(c(=O)[nH]2)CCC3)c1,7.31%
12,CCc1ccc(NCc2cc3ccc(OC)cc3n(CC(=O)Nc3ccccc3C)c2=O)cc1,-0.116%
13,OC(COCc1ccccc1)CN1CCN(c2ccccc2)CC1 (configuration not stated),active: 85.7%
14,CN(c1ccccc1)S(=O)(=O)c1cccc(C(=O)NCc2ccccc2CN2CCCC2)c1,active: 39.3%
15,COc1ccc(NC(=O)CSc2nc(-c3cccs3)cc(C(F)(F)F)n2)cc1Cl,12.7%
16,COc1ccccc1NC(=O)C1=C(C)Nc2c(C(=O)Nc3ccc(C)cc3)cnn2C1c1cccc(OC)c1OC (configuration not stated),4.38%
17,Cc1ccccc1NC(=O)c1cc2c(-c3ccccc3)nn(-c3ccccc3)c2s1,-2.17%
18,COc1ccc(N(Cc2ccccc2)C(=O)c2nc(S(C)(=O)=O)ncc2Cl)cc1,2.76%
19,Cc1cccc(N2CCN(C(=O)Cn3nc(C)c4sc5ccccc5c4c3=O)CC2)c1C,6.44%
20,COc1cccc(C(=O)Nc2ccc(-n3nncc3-c3ccccc3)cc2)c1OC,-5.97%
21,CCCSCCCNC(=O)C1CCN(C(=O)c2cnn(-c3ccccc3)c2-n2cccc2)CC1,1.08%
22,COc1ccc(CNC(=O)Cn2c(=O)nc(-c3ccccc3)c3cc(Cl)ccc32)cc1OC,16.5%
23,CCOc1ccc(C2=NC(c3ccncc3)=Nc3ccc(C)cc3N2)cc1OCC,-10.4%

row,Compound,inhibition
1,O=C(CCNC(=O)C1CCN(S(=O)(=O)c2ccc(F)cc2)CC1)NCc1ccc(F)cc1,active: 32.7%
2,COCc1cc(C)nc2sc(C(=O)Nc3ccccc3O)c(N)c12,13.3%
3,COc1ccc(C2CC(=O)c3c([nH]c(C(=O)OCc4ccccc4)c3C)C2)cc1 (configuration not stated),9.94%
4,Cc1ccc(OCCn2cc(C(=O)c3cccs3)c3ccccc32)cc1,6.84%
5,CSc1nn(CC(=O)Nc2ccccc2F)c(N)c1S(=O)(=O)c1ccccc1,-3.52%
6,COc1ccc(CNC(=O)Cc2c(C)c3cc4c(C)coc4cc3oc2=O)cc1,10.1%
7,Cc1nc2c(C(=O)NCCC(C)C)c[nH]n2c(=O)c1Cc1ccccc1F,active: 37.1%
8,COCCCNC(=O)Cn1c(=O)n(-c2cccc(C)c2)c(=O)c2c1c1cc(C)ccc1n2C,-21.2%
9,CCc1ccc(NC(=O)CCc2c(C)nc3nc(-c4cc(OC)cc(OC)c4)nn3c2C)cc1,26.6%
10,Cc1ccc(N2CCn3c2nc2c3c(=O)n(C/C=C/c3ccccc3)c(=O)n2C)cc1C,-21.8%
11,COc1ccc(-c2noc(CCCC(=O)Nc3cccc(Cl)c3C)n2)cc1,-9.91%
12,Cc1ccc(CN2CCSc3ccc(C(=O)NCc4ccc(OC(C)C)cc4)cc32)cc1,12.9%
13,COc1ccc(S(=O)(=O)N2CCC(N3CCN(Cc4ccccc4)C(=O)C3=O)CC2)cc1,3.1%
14,CCn1c2ccccc2c2nnc(N3CCN(c4cccc(Cl)c4)CC3)nc21,-16.4%
15,CCOC(=O)c1c(C)[nH]c(CCC(=O)NCc2ccc(OC)c(OC)c2)c1C,-23.2%
16,O=C(O)COc1ccc2c3c(c(=O)oc2c1)CCC3,active: 38.8%
17,C#CC(C)(CC)NC(=O)Cn1nnc(-c2ccc(OCc3ccccc3C)cc2)n1 (configuration not stated),-11.6%
18,Cc1cccc(-c2nn3c(=O)cc(CN4CCN(C(=O)c5ccccc5Br)CC4)nc3s2)c1,3.59%
19,COc1ccccc1N1CCN(C(=O)c2cnn(-c3cccc(Cl)c3)c2C2CCN(C(=O)OC(C)(C)C)CC2)CC1,6.89%
20,CCCn1c2ccccc2c2cnn(CC(=O)NCC3CCN(Cc4ccc(F)cc4)CC3)c(=O)c21,-8.59%
21,CCc1ccccc1NC(=O)c1cc(S(=O)(=O)N2CCc3ccccc32)ccc1F,17.8%
22,COc1ccccc1CNc1nc(-c2ccco2)nn1C(=O)c1cc(OC)c(OC)c(OC)c1,-11.5%
23,Cc1ccccc1CNC(=O)C1=Cc2ccccc2OC1,9.33%

row,Compound,inhibition
1,O=C(Nc1cccc(C(F)(F)F)c1)C1CC(=O)N(CCc2ccccc2)C1 (configuration not stated),active: 62.5%
2,CCc1nc(SC)ncc1C(=O)N1CCN(c2cc(Cl)ccc2C)CC1,3.74%
3,CC(NC(=O)C1CCN(S(=O)(=O)c2ccccc2)CC1)c1ccccc1 (configuration not stated),4.27%
4,Cc1nn(C(C)C(=O)Nc2ccc(C(C)C)cc2)c(=O)c2c1sc1ccccc12 (configuration not stated),4.41%
5,COc1cc(/C=C(\C#N)c2nc3ccccc3[nH]2)ccc1OCc1ccc(F)cc1,-4.08%
6,COc1cc(-c2nc(SCC(=O)Nc3ccc(C)cc3)c(-c3ccc(F)cc3)[nH]2)cc(OC)c1OC,-4.29%
7,CCCN(CCC)CCCNC(=O)c1cnn(-c2ccc(F)cc2)c1-n1cccc1,-10.6%
8,CCCCn1c(=N)c(S(=O)(=O)c2ccc(C)cc2)cc2c(=O)n3cc(C)ccc3nc21,-1.85%
9,O=C(Nc1ccc(-c2nc3cc(NC(=O)c4ccc(F)cc4)ccc3o2)cc1)c1ccc(F)cc1,-9.9%
10,CCc1nn2c(=O)cc(COC(=O)c3ccc(NC(=O)CCc4ccccc4)cc3)nc2s1,1.54%
11,O=C(COc1ccccc1)N(Cc1cccnc1)c1nc2c(F)cccc2s1,11.1%
12,Nc1ccc(NC(=O)c2cccc(C(=O)Nc3ccc(N)cc3Cl)c2)c(Cl)c1,0.393%
13,Cc1ccc(-c2nnc(Nc3ccc(OC(F)(F)Cl)cc3)c3ccccc23)cc1S(=O)(=O)NC(C)(C)CO,11.1%
14,CC(=O)N1CCc2c(sc3nc(SCC(C)C)n(-c4ccc(C)c(Cl)c4)c(=O)c23)C1,4.57%
15,Cc1nc2scc(C)n2c(=O)c1S(=O)(=O)Nc1ccc(N2CCN(S(C)(=O)=O)CC2)cc1,-5.64%
16,O=C(CN1C(=O)COc2ccc(S(=O)(=O)N3CCCCCC3)cc21)Nc1cccc(Cl)c1,0.298%
17,COc1ccc(S(=O)(=O)N2CCC(NC(=O)OCc3c(Cl)cccc3Cl)CC2)cc1,active: 34.6%
18,COc1ccc(-c2cc(C(=O)Oc3ccc(C)cc3)c3cc(C)ccc3n2)cc1,-4.94%
19,Cc1cc(=O)n(C(C)C(=O)N2CCCc3ccccc32)c2c1c(C)nn2-c1ccccc1 (configuration not stated),17.9%
20,CC1CCN(c2nn3c(=O)c(C(=O)NCCc4ccccc4)cnc3s2)CC1,-9.16%
21,CC(/C=N/NC(=O)c1cccc(F)c1)=C\c1ccccc1,active: 33.4%
22,Cc1ccc2[nH]cc(S(=O)(=O)c3ccc(C)c(C)c3)c(=O)c2c1,-17.8%
23,CCCCCCN(C(=O)CCCCCN1C(=O)NC(c2ccc(-c3ccccc3)cc2)C(C(=O)OCc2ccccc2)=C1C)C(C(=O)NCCCC)c1ccccn1 (configuration not stated),active: 31%
